Screen size: about 340,000 compounds; about 6,900 (2%) were called active. Cut-off read from the data, not from the text of the source: active = inhibition above about 30%; inactive = below that, where a call was filed. The entries are a selection whose mix differs from that of the whole data set. The source gives no active or inactive call for entries shown without one.

The target of the assay is D(2) dopamine receptor (Homo sapiens) (UniProt P14416). The experiment in a line: HTS Assay for Allosteric Antagonists of the Human D2 Dopamine Receptor: Primary Screen for Antagonists. Note: 0% is about no effect. The following applies: HEK293 TREx D2 cells, calcium flux, dopamine EC80; at 10 µM; stronger effect = higher value. The method in brief: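 Cells plated overnight at 30 C with tetracycline; no-wash calcium dye, 30–90 min RT; 10 s baseline; compound pinned; 180 s read; EC80 dopamine added; another 180 s read.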
UniProt P14416, sequence (P14416 whole entry, looked up): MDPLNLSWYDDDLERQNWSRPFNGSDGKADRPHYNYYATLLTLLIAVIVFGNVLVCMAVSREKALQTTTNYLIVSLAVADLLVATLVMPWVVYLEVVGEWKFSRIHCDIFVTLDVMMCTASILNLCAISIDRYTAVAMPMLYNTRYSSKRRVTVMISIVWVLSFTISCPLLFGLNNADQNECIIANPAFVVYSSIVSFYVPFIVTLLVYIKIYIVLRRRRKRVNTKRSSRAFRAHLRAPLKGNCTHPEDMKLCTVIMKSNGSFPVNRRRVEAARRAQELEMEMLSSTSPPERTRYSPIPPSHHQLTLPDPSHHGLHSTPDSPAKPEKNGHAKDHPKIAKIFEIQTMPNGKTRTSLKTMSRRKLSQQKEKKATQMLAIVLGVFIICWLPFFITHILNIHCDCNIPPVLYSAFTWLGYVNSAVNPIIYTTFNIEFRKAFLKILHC
As for `Cc1ccc(C)c(NC(=O)CN2C(=O)C(C)(C)c3ccccc32)c1`, the inhibition is -1.6%. In the case of `COc1ccc(Br)cc1CNC(=O)c1cc2n(n1)CCCN(Cc1ccc(C)cc1)C2=O` it was -8.37%; in that of `O=C(Nc1sc2c(c1C(=O)NCc1ccco1)CCCC2)c1cc(=O)c2ccccc2o1`, -8.31%; in that of `COc1ccccc1C1CCN(Cc2ccc3ccccc3c2)CC1`, active: 85.1%.

For `Cc1nc(Oc2ccc(F)cc2Cl)c2oc3ccccc3c2n1`, the inhibition was determined as 18.2%. In the case of `CCC(=O)N1CCc2cc(Br)cc(S(=O)(=O)CCC(=O)NCc3ccc(Cl)cc3)c21` it was 3.31%; in that of `CCOc1ccccc1NC(=O)CN(C)S(=O)(=O)c1ccc2nc(C)sc2c1`, 7.53%. In the case of `COc1cc(C(=O)NCC(c2cccs2)S(=O)(=O)c2ccc(F)cc2)cc(OC)c1OC` (stereo unspecified) it was -24.3%; in that of `CCOC(=O)c1c(C)[nH]c(CCC(=O)Nc2ccc(C)c(F)c2)c1C`, -7.91%; in that of `COc1cc2cc(CNc3ccc(C)cc3)c(=O)n(CC(=O)Nc3ccc(F)cc3F)c2cc1OC`, -2.79%. In the case of `Cc1ccccc1-c1noc(-c2ccc(O)cc2)n1` it was active: 45.9%; in that of `Cc1cccc(OCC(=O)Nc2ccc(Cl)c(-c3nc4ncccc4o3)c2)c1C`, 11%. Consider `Cc1cccc(NC(=O)c2nnn(CC(=O)Nc3ccc(C(C)C)cc3)c2N)c1C`, for which the inhibition was 8.97%. Consider `COc1ccc(-c2cc(C(=O)OC(C)C(=O)c3ccccc3)c3cccc(Cl)c3n2)cc1` (stereo unspecified), for which the inhibition was determined as 2.24%. In the case of `c1ccc(Nc2c(-c3c[nH]c4ccccc34)nc3ccccn23)cc1` it was 17.9%. In the case of `Cc1ccc(C2c3[nH]c4ccccc4c3CCN2C(=O)c2cccc(C)c2)cc1` (stereo unspecified) it was 14.2%; in that of `CC(C)Nc1ccc(-c2nc(-c3ccco3)no2)cc1[N+](=O)[O-]`, 8.69%; in that of `CCC(C)NC(=O)c1ccccc1NC(=O)CN1C(=O)c2cccc3cccc1c23` (stereo unspecified), 4.22%.

In the case of `CCOCCCNC(=O)C(c1ccc(C)cc1)N(Cc1ccc2c(c1)OCO2)C(=O)c1ccc(NC(C)=O)cc1` (stereo unspecified), the inhibition is -2.89%.

With `Cc1ccc2nc(N3CCC(C(=O)N4CCN(c5cccc(Cl)c5)CC4)CC3)[nH]c2c1`, the inhibition was found to be 11.7%. As to `COc1ccc(-c2noc(CC(=O)Nc3ccc(F)cc3F)n2)cc1`, the inhibition was -6.01%.

As for `Cc1ccc(-c2nnc(Nc3cccc(O)c3)c3ccccc23)cc1S(=O)(=O)N1CCOCC1`, the inhibition was 12.4%. In the case of `CON(C)S(=O)(=O)c1cccc(C(=O)Nc2ccc(S(=O)(=O)NC3=NCCCCC3)cc2)c1` it was active: 32.7%. As for `CCc1ccc(NC(=O)CCn2nc(-c3ccccc3OC)c3c(C)cc(C)nc32)cc1`, the inhibition came to 27.1%. In the case of `COc1ccccc1OC(C)C(=O)Nc1ccc(-c2nc3ccccc3s2)cc1` (stereo unspecified) it was -9.34%; in that of `CCC(C(=O)NCc1ccccc1)n1nc(C)c2sc3ccccc3c2c1=O` (stereo unspecified), 9.15%.
